Test results taken from the antibiotic and cytotoxicity screens of Wong et al. (2023).
This is one part of the list.

Legend:
[1] = tested on: HSkMC (human skeletal muscle cells); test: cytotoxicity call (relative viability < 0.9); settings: 10 µM
[2] = tested on: HepG2; test: cytotoxicity call (relative viability < 0.9); settings: 10 µM
[3] = tested on: S. aureus RN4220; test: growth inhibition call (relative growth <= 0.2); settings: 50 µM

SMILES	cytotoxicity call [1]	cytotoxicity call [2]	growth inhibition call [3]
C[C@H]1CN([C@@H](C)CO)C(=O)c2cc(NS(=O)(=O)c3ccc(Cl)cc3)ccc2O[C@H]1CN(C)C(=O)Nc1ccc(C(F)(F)F)cc1	inactive	inactive	inactive
C[C@@H]1CN([C@H](C)CO)C(=O)c2cc(NC(=O)CCC(F)(F)F)ccc2O[C@@H](C)CCCCO[C@H]1CN(C)C(=O)Nc1cccc2ccccc12	inactive	active	inactive
O=C(CCCCC(=O)N/N=C/c1cc[n+]([O-])cc1)NO	inactive	inactive	inactive
C[C@@H]1CN([C@H](C)CO)S(=O)(=O)c2ccc(-c3ccncc3)cc2O[C@@H]1CN(C)Cc1ccc(Oc2ccccc2)cc1	inactive	inactive	inactive
C[C@@H]1CCCCO[C@H](CN(C)S(=O)(=O)c2ccc(F)cc2)[C@@H](C)CN([C@H](C)CO)C(=O)c2cc(NC(=O)Nc3ccc(F)cc3)ccc2O1	inactive	inactive	inactive
Cc1ccc(S(=O)(=O)Nc2ccc3c(c2)CC(=O)N([C@@H](C)CO)C[C@H](C)[C@H](CN(C)S(=O)(=O)c2cccs2)O3)cc1	inactive	inactive	inactive
C=C[C@@]1(C)CC(=O)[C@]2(O)[C@@]3(C)[C@@H](O)CCC(C)(C)[C@@H]3[C@H](O)[C@H](OC(C)=O)[C@@]2(C)O1	inactive	inactive	inactive
C[C@@H]1CCCCO[C@@H](CN(C)S(=O)(=O)c2cn(C)cn2)[C@@H](C)CN([C@H](C)CO)C(=O)c2cc(NC(=O)Nc3cccc4ccccc34)ccc2O1	inactive	inactive	inactive
CS(=O)(=O)N1CCC2(CC1)OCCO2	inactive	inactive	inactive
C[C@@H]1CN([C@H](C)CO)C(=O)CCCn2cc(nn2)CO[C@H]1CN(C)S(=O)(=O)c1ccccc1C#N	inactive	inactive	inactive
COc1ccc(NC(=O)N(C)C[C@@H]2Oc3ncc(C#CCN(C)C)cc3C(=O)N([C@H](C)CO)C[C@@H]2C)cc1	inactive	inactive	inactive
COc1ccc(S(=O)(=O)Nc2cccc3c2O[C@@H](CN(C)S(=O)(=O)c2cn(C)cn2)[C@@H](C)CN([C@H](C)CO)C3=O)cc1	inactive	inactive	inactive
COc1ccccc1CNC(=O)C[C@H]1C[C@H]2c3cc(NS(=O)(=O)c4ccc(F)cc4)ccc3O[C@H]2[C@@H](CO)O1	inactive	inactive	inactive
Cc1noc(C)c1S(=O)(=O)N(C)C[C@@H]1Oc2ccc(NC(=O)NC3CCCCC3)cc2CC(=O)N([C@H](C)CO)C[C@H]1C	inactive	inactive	inactive
CO[C@H]1CN(C)C(=O)c2cc(NS(C)(=O)=O)ccc2OC[C@H](C)N(C(=O)CN(C)C)C[C@H]1C	inactive	inactive	inactive
C[C@H](CO)N1C[C@H](C)[C@H](CN(C)Cc2ccc(Oc3ccccc3)cc2)Oc2c(NC(=O)c3ccncc3)cccc2C1=O	inactive	inactive	inactive
CC(=O)N[C@@H]1CC[C@@H](CCNC(=O)C2CC2)O[C@@H]1CO	inactive	inactive	inactive
CN(C)Cc1cn(CC[C@H]2CC[C@H](NC(=O)Cc3cccnc3)[C@H](CO)O2)nn1	inactive	inactive	inactive
Cc1noc(C)c1S(=O)(=O)N(C)C[C@@H]1Oc2ccc(NC(=O)NC3CCCCC3)cc2CC(=O)N([C@H](C)CO)C[C@@H]1C	inactive	inactive	inactive
COc1ccc(S(=O)(=O)N(C)C[C@@H]2OCCCC[C@H](C)Oc3ccc(NC(=O)Nc4c(C)noc4C)cc3C(=O)N([C@H](C)CO)C[C@H]2C)cc1	inactive	inactive	inactive
C[C@@H]1CN([C@H](C)CO)C(=O)c2cccc(NC(=O)c3cnccn3)c2O[C@H]1CN(C)C(=O)Nc1ccccc1	inactive	inactive	inactive
CCS(=O)(=O)Nc1ccc2c(c1)C(=O)N(C)C[C@H](OC)[C@H](C)CN(Cc1nccs1)[C@H](C)CO2	inactive	inactive	inactive
Cc1ccc(S(=O)(=O)N(C)C[C@@H]2Oc3ccc(NS(=O)(=O)c4ccccc4)cc3C(=O)N([C@@H](C)CO)C[C@H]2C)cc1	inactive	inactive	inactive
C[C@H](CO)N1C[C@H](C)[C@H](CN(C)C(=O)Nc2ccc3c(c2)OCO3)Oc2ccc(NC(=O)Nc3cccc4ccccc34)cc2CC1=O	inactive	inactive	inactive
CCOC(=O)C1CCN(c2cn[nH]c(=O)n2)CC1	inactive	inactive	inactive
Cc1noc(C)c1NC(=O)Nc1ccc2c(c1)C(=O)N([C@H](C)CO)C[C@H](C)[C@H](CN(C)Cc1ccc(C(F)(F)F)cc1)O2	inactive	inactive	inactive
COc1ccc(NC(=O)Nc2ccc3c(c2)C(=O)N([C@@H](C)CO)C[C@@H](C)[C@@H](CN(C)S(=O)(=O)c2ccccc2)OCCCC[C@H](C)O3)cc1	inactive	inactive	inactive

SMILES	cytotoxicity call [1]	cytotoxicity call [2]	growth inhibition call [3]
C[C@@H]1CN([C@H](C)CO)C(=O)Cc2cc(NS(=O)(=O)c3ccc(F)cc3)ccc2O[C@@H]1CN(C)S(=O)(=O)c1ccccc1	inactive	inactive	inactive
C[C@H]1CN([C@@H](C)CO)C(=O)c2cc(NC(=O)CCCCCC(=O)Nc3ccccc3N)ccc2O[C@H]1CN(C)Cc1ccc(C(F)(F)F)cc1	inactive	inactive	inactive
N[C@@H](CC(=O)N1CCn2c(nnc2C(F)(F)F)C1)Cc1[nH]nc2c(F)c(F)ccc12	inactive	inactive	inactive
Cc1noc(C)c1NC(=O)N(C)C[C@@H]1Oc2c(NC(=O)Nc3ccc(C(F)(F)F)cc3)cccc2C(=O)N([C@H](C)CO)C[C@@H]1C	inactive	inactive	inactive
Cc1noc(C)c1NC(=O)N(C)C[C@@H]1OCCCC[C@@H](C)Oc2ccc(NS(=O)(=O)c3cccs3)cc2C(=O)N([C@@H](C)CO)C[C@H]1C	inactive	inactive	inactive
COc1ccc(NC(=O)Nc2cccc3c2O[C@H](CN(C)Cc2ccc(Oc4ccccc4)cc2)[C@@H](C)CN([C@@H](C)CO)C3=O)cc1	active	inactive	inactive
Cc1noc(C)c1NC(=O)Nc1cccc2c1O[C@@H](CN(C)C(=O)NC(C)C)[C@@H](C)CN([C@H](C)CO)C2=O	inactive	inactive	inactive
COC(=O)C1=CC(CCCO)=C[C@@H](c2cccs2)N(Cc2cccc(OC(F)(F)F)c2)C=C1C(=O)OC	inactive	inactive	active
C[C@@H]1CN([C@H](C)CO)C(=O)Cc2cc(NC(=O)CCCCCC(=O)Nc3ccccc3N)ccc2O[C@H]1CN(C)C(=O)Nc1ccc(C(F)(F)F)cc1	inactive	inactive	inactive
Cc1ccc(S(=O)(=O)Nc2ccc3c(c2)C(=O)N([C@@H](C)CO)C[C@H](C)[C@H](CN(C)C(=O)Nc2ccc(C(F)(F)F)cc2)O3)cc1	inactive	inactive	inactive
CC(C)[C@@H](CO)N1C(=O)[C@@H]2[C@H]3C(=O)OCC=C[C@H]3O[C@]23C=CCN(c2ccc4ccccc4c2)C(=O)[C@@H]13	inactive	inactive	inactive
COCC#Cc1cnc2c(c1)C(=O)N([C@H](C)CO)C[C@@H](C)[C@H](CN(C)C(=O)Nc1cc(F)ccc1F)O2	inactive	inactive	inactive
COc1cccc(NC(=O)N2C[C@H](O)COC[C@H]3O[C@H](CC(=O)NCCCN4CCOCC4)CC[C@@H]32)c1	inactive	inactive	inactive
C[C@@H]1CCCCO[C@@H](CN(C)Cc2ccc(C(=O)O)cc2)[C@@H](C)CN([C@H](C)CO)C(=O)c2cc(NC(=O)CCC(F)(F)F)ccc2O1	inactive	inactive	inactive
C[C@@H]1CN([C@@H](C)CO)S(=O)(=O)c2ccc(/C=C/c3ccccc3)cc2O[C@H]1CN(C)C(=O)Nc1cc(F)ccc1F	inactive	inactive	inactive
O=C1CCCCCN1	inactive	inactive	inactive
Cc1ccc(S(=O)(=O)Nc2ccc3c(c2)C(=O)N([C@H](C)CO)C[C@@H](C)[C@@H](CN(C)Cc2ccc(-c4ccccc4)cc2)O3)cc1	active	active	inactive
C[C@@H]1CN([C@@H](C)CO)C(=O)c2cccc(NS(=O)(=O)c3ccccc3)c2O[C@H]1CN(C)Cc1ccc(Cl)c(Cl)c1	inactive	inactive	inactive
COCC(=O)N[C@@H]1C=C[C@@H](CC(=O)N2CCCCC2)O[C@H]1CO	inactive	inactive	inactive
C[C@@H]1CCCCO[C@H](CN(C)C(=O)CCCN(C)C)[C@@H](C)CN([C@H](C)CO)C(=O)c2cc(NC(=O)Nc3ccc(C(F)(F)F)cc3)ccc2O1	inactive	inactive	inactive
C[C@H](CO)N1C[C@H](C)[C@H](CN(C)C(=O)Nc2ccc3c(c2)OCO3)Oc2c(NC(=O)c3cnccn3)cccc2C1=O	inactive	inactive	inactive
COc1ccc(NC(=O)N(C)C[C@@H]2OCCCC[C@H](C)Oc3ccc(NC(=O)c4ccncc4)cc3C(=O)N([C@H](C)CO)C[C@@H]2C)cc1	inactive	inactive	inactive
Cn1cnc(S(=O)(=O)N2C[C@H](O)COC[C@@H]3O[C@@H](CC(=O)NCc4cc(F)cc(F)c4)CC[C@H]32)c1	inactive	inactive	inactive
C[C@H](CO)N1C[C@H](C)[C@H](CN(C)C(=O)Nc2ccc(F)cc2)Oc2ncc(C#CC(C)(C)O)cc2C1=O	inactive	inactive	inactive
C[C@H]1CN([C@@H](C)CO)C(=O)Cc2cc(NC(=O)Nc3ccccc3)ccc2O[C@H]1CN(C)C(=O)Nc1ccc(C(F)(F)F)cc1	inactive	inactive	inactive
COc1cccc(C#Cc2ccc3c(c2)O[C@@H](CN(C)C(=O)c2ccccn2)[C@H](C)CN([C@H](C)CO)S3(=O)=O)c1	inactive	inactive	inactive
